# Reference: paper PMC4336329 (PLoS ONE, 2015)
# Out of some 310,000 compounds screened, about 2,200 (0.71%) showed an effect of 50% or more. The effect is printed as a negative number. The list shows a part of the results.
# Target: human ether-à-go-go-related gene (hERG) potassium channel (human, UniProt Q12809)
# Test: primary screen, population patch clamp on CHO cells stably expressing hERG
# Chain of human ether-à-go-go-related gene (hERG) potassium channel (Q12809 whole entry, looked up): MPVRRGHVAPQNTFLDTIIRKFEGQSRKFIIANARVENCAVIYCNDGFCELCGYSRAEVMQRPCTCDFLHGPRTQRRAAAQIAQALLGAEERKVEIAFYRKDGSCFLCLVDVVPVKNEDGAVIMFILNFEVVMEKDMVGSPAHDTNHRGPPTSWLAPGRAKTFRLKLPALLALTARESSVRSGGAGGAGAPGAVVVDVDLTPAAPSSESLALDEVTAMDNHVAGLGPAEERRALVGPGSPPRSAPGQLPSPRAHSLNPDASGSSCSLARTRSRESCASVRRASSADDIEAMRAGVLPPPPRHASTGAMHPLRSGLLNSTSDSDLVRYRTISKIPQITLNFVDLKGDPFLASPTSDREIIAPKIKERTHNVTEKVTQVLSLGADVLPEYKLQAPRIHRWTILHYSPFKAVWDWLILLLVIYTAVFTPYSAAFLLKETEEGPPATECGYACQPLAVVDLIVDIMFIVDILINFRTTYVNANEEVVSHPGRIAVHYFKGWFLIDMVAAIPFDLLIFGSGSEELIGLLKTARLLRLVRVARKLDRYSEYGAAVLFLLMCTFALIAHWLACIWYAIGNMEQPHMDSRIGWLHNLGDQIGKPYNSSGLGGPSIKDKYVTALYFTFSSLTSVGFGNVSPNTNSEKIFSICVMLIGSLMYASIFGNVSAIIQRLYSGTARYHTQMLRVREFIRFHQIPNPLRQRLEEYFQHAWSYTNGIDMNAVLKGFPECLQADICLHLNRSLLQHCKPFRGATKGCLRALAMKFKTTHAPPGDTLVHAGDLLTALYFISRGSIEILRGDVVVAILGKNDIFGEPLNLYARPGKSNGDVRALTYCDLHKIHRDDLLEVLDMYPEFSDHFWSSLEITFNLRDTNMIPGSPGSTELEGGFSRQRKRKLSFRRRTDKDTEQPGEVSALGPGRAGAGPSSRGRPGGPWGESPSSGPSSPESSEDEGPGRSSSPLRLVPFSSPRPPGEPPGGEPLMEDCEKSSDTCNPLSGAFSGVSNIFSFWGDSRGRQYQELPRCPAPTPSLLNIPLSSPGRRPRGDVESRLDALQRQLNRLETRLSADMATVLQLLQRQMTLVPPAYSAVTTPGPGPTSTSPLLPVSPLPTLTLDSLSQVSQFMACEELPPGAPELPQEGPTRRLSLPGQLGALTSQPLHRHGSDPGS
row,Compound,"hERG current change (%, negative = inhibition) at 1uM [%]"
1,CCCCOc1cccc(C(=O)O)c1,4.19
2,O=C(COC(=O)c1ccc(Cl)nc1)Nc1cccnc1Cl,18.1
3,NC(=S)N/N=C1\CC(n2nnnc2-c2ccccc2)C2COC1O2 (centres unmarked),6.36
4,CC1/C(=N/O)CC(c2ccco2)NC1c1ccco1 (centres unmarked),15.6
5,CCc1ccc(C(=O)NC(=S)NCc2cccnc2)cc1,-6.72
6,CN1CCN(S(=O)(=O)c2ccc3c(c2)NC(=O)C2CCCN32)CC1 (centres unmarked),13.4
7,O=C(O)COCC(=O)Nc1cc(C(F)(F)F)cc(C(F)(F)F)c1,8.94
8,NC(=O)c1cnn(C2CCS(=O)(=O)C2)c1 (centres unmarked),11.4
9,CCn1c(SCC(=O)NCc2ccc3c(c2)OCO3)nnc1-c1ccco1,2.87
10,Cc1c(C)n(Cc2ccccc2)c2ncnc(NCCCN(C)C)c12,9.15
11,CCOc1cccc(-c2c(C(=O)N/N=C/c3ccco3)nnn2-c2nonc2N)c1,10.7
12,CCCCOC(=O)Nc1nc(C)c(C(=O)OCC)s1,0.987
13,CCCC(=O)c1cc(-c2nc3ccccc3n2C)n(C)c1,9.66
14,O=C(Nc1ccc(CN2CCOCC2)cc1)c1ccccc1F,5.74
15,CCN(CCCNC(=O)C1CCN(C(=O)c2cc3sccc3n2C)CC1)Cc1ccccc1,-10.4
16,CC(CNS(=O)(=O)c1ccccc1)(c1ccccc1)N1CCCCC1 (centres unmarked),14.3
17,Cc1cc(C)n(-c2nc3ccccc3nc2Nc2ccc3c(c2)OCO3)n1,21.4
18,CCN(CC)C(=O)c1cn(-c2ccccc2)nc1-c1ccc2c(c1)OCCO2,9.11
19,Nc1ccc(C(=O)N2CCN(S(=O)(=O)/C=C/c3ccccc3)CC2)cc1[N+](=O)[O-],-3.29
20,CC(NC(=O)c1ccc2c(c1)OCO2)C(c1cccs1)N1CCOCC1 (centres unmarked),7.73
21,O=c1c(Cc2ccc(Cl)cc2Cl)c(O)ccn1CC(F)(F)F,8.81
22,COc1ccc(N2CCN(S(=O)(=O)c3ccc4c(c3)OCCO4)CC2)cc1,6.68
23,COc1cc(/C=C2/C(=O)ON=C2C)ccc1OCc1ccccc1F,6.43

row,Compound,"hERG current change (%, negative = inhibition) at 1uM [%]"
1,Cc1ccc(-c2[nH]c(=O)n3ccncc23)s1,15.9
2,CCN(CC)C(=O)Cn1cc(SCC(=O)NCc2ccco2)c2ccccc21,5.24
3,Cc1ccc2cc(CN(CC3CCCO3)S(=O)(=O)c3c(C)ccc4nsnc34)c(=O)[nH]c2c1 (centres unmarked),-4.59
4,NC(=O)c1ccc(Oc2ccc3ccc(=O)oc3c2)c([N+](=O)[O-])c1,-6.58
5,COc1ccc(C(=O)Nc2nnc(Cc3cccs3)s2)cc1OC,10.7
6,CCOc1ccc(S(=O)(=O)N2CCN(C)CC2)cc1NC(=O)c1ccccc1F,-22
7,CC(C)C(NS(=O)(=O)c1cccs1)C(=O)NCCN1CCN(c2ccccc2)CC1 (centres unmarked),-4.31
8,CC(C(N)=O)N1c2cccc3cccc(c23)S1(=O)=O (centres unmarked),9.45
9,COc1ccccc1NS(=O)(=O)c1cc(C(=O)NCC(C)(C)N2CCOCC2)ccc1C,5.76
10,COc1ccc(C2C(C#N)=C(N)OC3=C2C(=O)CC(C)(C)C3)c(OC)c1OC (centres unmarked),8.28
11,C=CCNC(=S)NCc1ccccc1OC,7.33
12,CC/C(=N\NC(=O)c1ccccc1Cl)c1c(O)n(C2CCCCC2)c(=O)[nH]c1=O,10.6
13,O=C(CSc1ccsc1[N+](=O)[O-])NCc1ccco1,7.57
14,O=C(COc1ccc(S(=O)(=O)N2CCCCC2)cc1)N1CCCCCC1,4.45
15,Cc1ccc(CN(Cc2ccco2)C(=S)NCC(=O)NC2CC2)cc1,-0.242
16,O=C(NCCCN1CCOCC1)c1ccc(CS(=O)(=O)c2c(Cl)cccc2Cl)o1,4.69
17,CCN(C(=O)c1ccc(Br)o1)C1CCS(=O)(=O)C1 (centres unmarked),5.63
18,c1ccc2nc(-c3ccncc3)ccc2c1,14.8
19,CC[C@@H](C)[C@H](NC(=O)Cc1c(C)c2cc3c(C)coc3c(C)c2oc1=O)C(=O)O,-0.576
20,Nc1ccc[n+](Cc2ccccn2)c1.[Br-],17
21,CCCN1Cc2cccc(C(=O)N3CCN(c4ccccc4)CC3)c2C1=O,10.9
22,O=c1c2ccccc2c(C=NCCCN2CCOCC2)c(O)n1Cc1ccc2c(c1)OCO2,-1.96
23,CCOC(=O)c1ccc(Nc2cc(C)nc(C)c2C(=O)OCC)cc1.Cl,-34.6

row,Compound,"hERG current change (%, negative = inhibition) at 1uM [%]"
1,Cc1cc(C)nc(N2CCCC(C(=O)Nc3ccc4c(c3)OCCO4)C2)n1 (centres unmarked),14.7
2,C=Cc1cccc(NC(=O)c2ccc(NC(=O)c3ccco3)cc2)c1,5.9
3,CCOC(=O)C1(Cc2ccccc2)CCCN(C(=O)c2cn[nH]c2)C1 (centres unmarked),16.1
4,Cn1cc(/C=C2/SC(=O)N(c3ccccc3)C2=O)c2ccccc21,8.81
5,COCC(=O)N(CCN(C)C)Cc1cc2cc3c(cc2nc1Cl)OCO3.Cl,14
6,CC(=O)c1ccc(NS(=O)(=O)c2ccc3c(c2)N(C)CCO3)cc1,1.5
7,CCOc1ccc2nc(Cl)c(C3CC(c4ccco4)=NN3S(=O)(=O)c3ccccc3)cc2c1 (centres unmarked),3.86
8,COc1ccc(-n2ncc3c2CC(C)(C)CC3NC(=O)CCn2nc(C)cc2C)cc1 (centres unmarked),-3.22
9,COC(=O)Cc1c(C)c2ccc(OCC(=O)NC3CCS(=O)(=O)C3)cc2oc1=O (centres unmarked),23.7
10,O=C(COC(=O)c1cc(Cl)nc2ccccc12)c1ccc(Cl)cc1,15.7
11,Br.O=C(Cn1c(NCCCO)nc2ccccc21)c1ccco1,12.3
12,Cc1ccc(NS(=O)(=O)c2ccc3c(c2)n(C)c(=O)n3C)c(C)c1,5.84
13,COc1ccc(N=C2SC(C(=O)O)CC(=O)N2Cc2ccc(OC)c(OC)c2)cc1 (centres unmarked),10.8
14,Cc1cc(S(=O)(=O)N2CCCOC2CNC(=O)C(=O)NCCc2ccco2)ccc1F (centres unmarked),17.8
15,COc1ccc(C2=NN(c3ccc(C(=O)O)cc3)C(c3ccc(OC)c(OC)c3)C2)cc1 (centres unmarked),2.87
16,CCC(NC(=O)NCc1ccccc1)(C(F)(F)F)C(F)(F)F,6.8
17,O=C(CN(CC1CCCO1)C(=O)CCC(=O)Nc1nccs1)NCC1CCCO1 (centres unmarked),5.17
18,CCCCNC(=O)Cn1nc(-c2ccc(C)cc2)ccc1=O,13.2
19,CCC(C)C(NS(=O)(=O)c1ccc(C)cc1)C(=O)NCCCN1CCOCC1 (centres unmarked),28.3
20,C=CCSc1nnc(-c2nnc(SCC=C)n2-c2ccccc2)n1-c1ccccc1,1.06
21,Cn1cc(CN2CCC(O)CC2)c(-c2ccc(Oc3ccccc3)cc2)n1,1.32
22,O=[N+]([O-])c1cccc(C=Nc2cccc3ccccc23)c1O,15.8
23,CC(=O)Nc1nnc(SCC(=O)N2CCCc3ccccc32)s1,7.15

row,Compound,"hERG current change (%, negative = inhibition) at 1uM [%]"
1,O=C(NNC(=S)Nc1ccccc1)c1cc(Br)ccc1Cl,13.6
2,CCc1cc2c(Nc3ccc(O)cc3)nc(C)nc2s1.Cl,15.9
3,COc1ccc(C(=O)N2CCN(Cc3ccccc3)CC2)cc1[N+](=O)[O-],-22.3
4,COc1ccc(NC(=O)CN2CCCN(S(=O)(=O)c3ccc(F)cc3)CC2)cc1,-25.9
5,CC(=O)NCCc1nc2cc(NC(=O)c3ccc(Cl)cc3)ccc2n1C,13.2
6,O=C(NCc1cccs1)C(=O)NCC(c1ccco1)N1CCN(c2ccccc2F)CC1 (centres unmarked),2.9
7,CN(C)CCCNC(=O)c1cc(C(=O)c2ccc(F)cc2)c[nH]1,-3.7
8,Br.c1ccc(-c2csc(Nc3ccc4c(c3)OCCO4)n2)cc1,7.58
9,COc1cc(NC(=S)NN2CCN(C)CC2)cc(OC)c1OC,-0.636
10,Cn1cc(CN2CCc3sccc3C2)c(-c2ccccc2F)n1,7.89
11,COc1ccccc1C(=O)NC1CC(C)(C)NC(C)(C)C1,17.9
12,COc1cc(NC(=O)CN2CCCCC2C)c(C)cc1[N+](=O)[O-] (centres unmarked),9.13
13,COc1ccc(N(C(=O)C2CCCCC2)S(=O)(=O)c2cccc3cccnc23)cc1,7.12
14,COc1ccc(C2=CC(c3ccc(C)cc3)n3nnnc3N2)cc1 (centres unmarked),-16.9
15,COc1ccc(-c2coc3cc(OC4OC(CO)C(O)C(O)C4O)ccc3c2=O)cc1 (centres unmarked),6.45
16,Nc1ccccc1C(=O)Nc1cccc2ccccc12,13.4
17,COc1ccc(N(CC(=O)NC2CCCCC2)C(=O)CCC(=O)Nc2nc(C)cs2)cc1OC,8.54
18,CC(NC(=O)c1ccc(F)cc1)c1ccc(F)cc1 (centres unmarked),-5.09
19,O=C(NCc1ccccn1)c1ccc(-c2ccccc2)cc1,12.9
20,COC(=O)c1ccc(C)c(NS(=O)(=O)c2ccc(NC(C)=O)cc2)c1,4.87
